This is an account of results in the supplement of paper PMC11417369.

Some of the results follow.

This assay deals with PfAP2-HC AP2 domain (GST-tagged). Kind of assay: gcPBM binding intensity (ln(normalized median fluorescence intensity)); higher = stronger DNA binding. The method in brief:
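Using an Agilent 4 × 180k array, primer-extended double-stranded 36-bp intergenic genomic probes and negative controls were exposed for 1 h to GST-fused P. falciparum DNA-binding domains expressed in E. coli. Binding was carried out in 1× PBS with 1% milk, 0.2 mg/ml BSA, 0.5% salmon testes DNA and 0.03% Triton X-100, and protein was detected with Alexa488 anti-GST antibody and a 488 nm scan. Binding intensity is the highest Masliner-normalised natural-log median intensity across replicate spots of either probe orientation.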
“AAAATACATAGACACACACACACACGGATATAAATA [CACACA_site7643]”: the “gcPBM binding intensity (ln)” value stood at 11.2.

Consider “ATATATATATATAAATGTACAGATATATTTTTTATT [XGTACX_site5445]”, for which the “gcPBM binding intensity (ln)” value stood at 9.67.

As to “TTTAATTTGATAGACACATGCACACGTGCAATACTT [TGCATGCA_site777]”, the “gcPBM binding intensity (ln)” value was 9.76.

In the case of “TACTAAAAAATATAAACACACATATATTTTACATAT [CACACA_site2042]”, the “gcPBM binding intensity (ln)” value amounted to 9.75.

“TATTCCTATAAAAAAACACACACATATAAATATATA [CACACA_site8727]”: the “gcPBM binding intensity (ln)” value turned out to be 10.3.

As for “AAATATATTTCACGCACACACACCCCAAATAAATTT [CACACA_site3820]”, the “gcPBM binding intensity (ln)” value amounted to 11.2.

Take “ATATTTCAAAATGAAAGTACATATAAAAATTATACA [XGTACX_site3787]”: the “gcPBM binding intensity (ln)” value was found to be 9.56.

Consider “AAGTATTTTTTTACATGTACATATATATATATATAT [XGTACX_site5065]”, for which the “gcPBM binding intensity (ln)” value was determined as 9.9.

Consider “AAATAGATAAGTAGGACACACATATATATATATTAA [CACACA_site1862]”, for which the “gcPBM binding intensity (ln)” value came out at 10.

As for “ATTTGCAGTATTTCGGAACACACAAACATAAATATG [CACACA_site8726]”, the “gcPBM binding intensity (ln)” value was determined as 9.69.

“TATAAAAAATTCTTCCTTATTTTATGATATATATAT [TGCATGCA_negctrl_site57]”: the “gcPBM binding intensity (ln)” value turned out to be 9.38.

Take “TTTAATTATTAGTGTGCACACAACTATGAGTTTTTA [CACACA_site8997]”: the “gcPBM binding intensity (ln)” value came out at 9.99.

As to “AATTACATTCAATTCTGTACTAATAGTAATTCAAAA [XGTACX_site7419]”, the “gcPBM binding intensity (ln)” value came to 9.52.

“CAAAAACATACCTACACACACAATATGTATTTATAA [CACACA_site5862]”: the “gcPBM binding intensity (ln)” value amounted to 10.1.

As to AAATGAATATTCATAGTGCAATATATAAATGAAAAT, the “gcPBM binding intensity (ln)” value amounted to 9.85.

“CATTTTTTTTTATAAATACACACGTACGGGTGCATA [CACACA_site1569]”: the “gcPBM binding intensity (ln)” value was found to be 9.58.

In the case of “TTCTGGCAAAATAACACACACATATATTTTATATAC [CACACA_site3242]”, the “gcPBM binding intensity (ln)” value turned out to be 10.5.

Turning to “TTCTTAAAAAAAAATAAAATAAAAAAAAAAATAAAA [CACACA_negctrl_site99]”, the “gcPBM binding intensity (ln)” value worked out at 9.33.

Regarding “GAACATTTACGCCCCACACACCTACCAACAAAAAAA [CACACA_site7746]”, the “gcPBM binding intensity (ln)” value came out at 10.

As for “ATAATTACATAGATTGGTACACATTTTTGATTGTAT [XGTACX_site3802]”, the “gcPBM binding intensity (ln)” value turned out to be 9.87.

Consider “TTAAAAATGTGTGTGCGTACATAATATTTCGAAAAA [XGTACX_site8197]”, for which the “gcPBM binding intensity (ln)” value worked out at 10.

Turning to “GTACAAATGATTAATCCTTTACTTATATATATATAT [XGTACX_negctrl_site138]”, the “gcPBM binding intensity (ln)” value is 10.

Take “TCATTTTATTATTCTACACACTTATCTATAATTATA [CACACA_site34]”: the “gcPBM binding intensity (ln)” value was found to be 9.99.

On to “TTTTTCATATGACACACACACAAAAATAATGTGGAA [CACACA_site7692]”, for which the “gcPBM binding intensity (ln)” value amounted to 9.99.

As to “AAATGAACACGAAAGGAAAAAAAAATATATATATAT [CACACA_negctrl_site267]”, the “gcPBM binding intensity (ln)” value was determined as 9.56.

Turning to “AAAAATATATATTCAGTGCATATAACAAAAATTATA [GTGCAC_site9794]”, the “gcPBM binding intensity (ln)” value is 9.73.

In the case of “ATTAAATAAAAAAACACACACATATATACATATATA [CACACA_site3445]”, the “gcPBM binding intensity (ln)” value is 10.6.

Take “CATAATAATAGAAACACACACACATAGACATATATA [CACACA_site1308]”: the “gcPBM binding intensity (ln)” value was found to be 10.7.

On to “CATATATAACCTATAGCACACATATATAATATATAT [CACACA_site8544]”, for which the “gcPBM binding intensity (ln)” value was found to be 9.86.

Regarding “TAAAATATAGAAAATTTTATTAAATATAAAAAAATA [CACACA_negctrl_site1441]”, the “gcPBM binding intensity (ln)” value was 9.53.

As for “GCATATCTATTTTCACGTACACAAACATGTATATAT [XGTACX_site3722]”, the “gcPBM binding intensity (ln)” value worked out at 9.95.

Turning to “ATATTACATATGTGCTGTACGCAATATATTATATCT [XGTACX_site1520]”, the “gcPBM binding intensity (ln)” value worked out at 9.92.

For “AAGAACTTTAATAAGTGTACATTTATTGGAAACATG [XGTACX_site2995]”, the “gcPBM binding intensity (ln)” value turned out to be 9.65.

Regarding “TTATATAAACACCAACGTACGTTCATTTAACATAAC [XGTACX_site5250]”, the “gcPBM binding intensity (ln)” value was 9.77.

As for “TATATATATATATATTGTACATATGTGGTATAAATG [XGTACX_site6108]”, the “gcPBM binding intensity (ln)” value stood at 9.93.

In the case of “AAAAATTAAAATATTATAGTTGAAACTTTTATAAAT [TGCATGCA_negctrl_site454]”, the “gcPBM binding intensity (ln)” value was 9.19.

On to “TTTCTCTTCTAAACATGTACAAAAATACATACATAT [XGTACX_site1365]”, for which the “gcPBM binding intensity (ln)” value stood at 9.76.

On to “TATATTTATTCCTGTTGTACTTTATATTATTTTTTT [XGTACX_site1415]”, for which the “gcPBM binding intensity (ln)” value was 9.9.

As for “ATATATATATATATATGTACATACATACATAGAACT [XGTACX_site2214]”, the “gcPBM binding intensity (ln)” value came out at 10.1.

Regarding “TCCCATTTATTATGGTGTACAATTAATTAAACATAA [XGTACX_site750]”, the “gcPBM binding intensity (ln)” value came to 9.41.

On to “TATAATATTAATGACTGTACTCATACGTATATTTAT [XGTACX_site5493]”, for which the “gcPBM binding intensity (ln)” value was 9.76.

On to “TTTAATTTATATTTTGTGCACATCTTATTATATATA [GTGCAC_site9630]”, for which the “gcPBM binding intensity (ln)” value came to 9.88.

Take “AATTTTGTTTAGCACACACACATACATACATACATA [CACACA_site5707]”: the “gcPBM binding intensity (ln)” value came to 10.2.

As for “CCCATTTTGACAAAAAGTACAAGTTCAGGTTTTATA [XGTACX_site1532]”, the “gcPBM binding intensity (ln)” value amounted to 9.39.

Regarding “TATATTATTTTATATTGTACATACCAAATATTATAT [XGTACX_site1693]”, the “gcPBM binding intensity (ln)” value turned out to be 9.54.

“CATGTGATAATGATTAGTACATAAACAAAAATATAT [XGTACX_site5866]”: the “gcPBM binding intensity (ln)” value stood at 9.82.

Turning to “AGAAAAATAAACAAATGTACAAATTATTACTATATA [XGTACX_site1087]”, the “gcPBM binding intensity (ln)” value is 9.77.

On to “ACATATTAATTATTATGACATACATATCAGTTATTA [TGCATGCA_negctrl_site126]”, for which the “gcPBM binding intensity (ln)” value worked out at 9.61.

Turning to “TTTATTTATATAATTACACACATATATACGCAAATG [CACACA_site2794]”, the “gcPBM binding intensity (ln)” value was determined as 9.73.

As to “TTTTATTCATTAATTTGTACTTATCCTTTTGCTTAA [XGTACX_site1243]”, the “gcPBM binding intensity (ln)” value was determined as 9.67.

In the case of “TCATTAATTAAATCTTGTACATATTCATATATATAT [XGTACX_site2241]”, the “gcPBM binding intensity (ln)” value turned out to be 9.88.

Take “AAAGTATAGATGTATACACACACCAAACGTTAAAAA [CACACA_site3081]”: the “gcPBM binding intensity (ln)” value came to 10.1.

On to “TAAGCCAAGGGATAAATAAAATAACAAAATGAAATC [GTGCAC_negctrl_site601]”, for which the “gcPBM binding intensity (ln)” value came out at 9.61.

On to “TAGTATCAATCTTATACATGCATAAAATAATTATAA [TGCATGCA_site1052]”, for which the “gcPBM binding intensity (ln)” value worked out at 9.53.

With “GTGTTCTTGTTATACACACACATATTTATATTTATA [CACACA_site6615]”, the “gcPBM binding intensity (ln)” value is 10.

On to “ACATTATGCCATAAATGTACACATACATATACACAG [XGTACX_site1330]”, for which the “gcPBM binding intensity (ln)” value turned out to be 9.66.
